{
  "source": "patent US20090117083A1",
  "about": "“IMMUNOMODULATORY ALKALOIDS” (M N L PHARMA LIMITED, priority 2004, published 2009)",
  "test_system": "dendritic cells",
  "experiment": "Induction of IL-12 secretion in dendritic cells (ELISA)",
  "type": "cell-based, BALB/c mice",
  "conditions": "ELISA of supernatant, compounds 50 μg/ml and 20 μg/ml",
  "data": [
    {"smiles": "OC[C@H]1NC[C@H](O)[C@@H](O)[C@@H]1O", "note": "[1-Deoxynojirimycin (DNJ) (21), 1-Deoxynojirimycin, reference compound]", "values": [
      {"measurement": "IL-12 RELEASE", "value": "No"}
    ]},
    {"smiles": "OC[C@H]1[C@@H](O)[C@H](O)[C@H]2[C@@H](O)[C@@H](O)CN21", "note": "[3,7-diepi-casuarine (10), (1R,2R,3S,6S,7R,7aR)-3-(hydroxymethyl)-1,2,6,7-tetrahydroxypyrolizidine]", "values": [
      {"measurement": "IL-12 RELEASE", "value": "Yes"}
    ]},
    {"smiles": "OC[C@H]1[C@@H](O)[C@H](O)[C@H]2[C@@H](O)CCN21", "note": "[3,7a-diepialexine (23), 3,7a-diepialexine, reference compound]", "values": [
      {"measurement": "IL-12 RELEASE", "value": "No"}
    ]},
    {"smiles": "OC[C@H]1[C@@H](O)[C@H](O)[C@H]2[C@H](O)[C@@H](O)CN21", "note": "[3-epi-casuarine (14), 3-epi-casuarine]", "values": [
      {"measurement": "IL-12 RELEASE", "value": "Yes"}
    ]},
    {"smiles": "OC[C@@H]1[C@@H](O)[C@H](O)[C@H]2[C@@H](O)[C@@H](O)CN21", "note": "[7-epi-casuarine (11), 7-epi-casuarine]", "values": [
      {"measurement": "IL-12 RELEASE", "value": "Yes"}
    ]},
    {"smiles": "OC[C@@H]1[C@@H](O)[C@H](O)[C@H]2[C@@H](O)CCN21", "note": "[7-epialexine (22), 7-epialexine, reference compound]", "values": [
      {"measurement": "IL-12 RELEASE", "value": "No"}
    ]},
    {"smiles": "O[C@H]1[C@H](O)[C@@H](O)CN2CC[C@H](O)[C@H]12", "note": "[Castanospermine (20), Castanospermine, reference compound]", "values": [
      {"measurement": "IL-12 RELEASE", "value": "No"}
    ]},
    {"smiles": "OCCN1[C@H](CO)[C@@H](O)[C@H](O)[C@H]1CO", "note": "[N-hydroxyethyl DMDP, N-hydroxyethyl-2,5-dihydroxymethyl-3,4-dihydroxypyrrolidine]", "values": [
      {"measurement": "IL-12 RELEASE", "value": "Yes"}
    ]},
    {"smiles": "O[C@H]1[C@H]2[C@H](O)CCCN2C[C@H]1O", "note": "[Swainsonine (4), Swainsonine, reference compound]", "values": [
      {"measurement": "IL-12 RELEASE", "value": "No"}
    ]},
    {"smiles": "OC[C@@H]1[C@@H](O)[C@H](O)[C@H]2[C@H](O)[C@@H](O)CN21", "note": "[casuarine (8)]", "values": [
      {"measurement": "IL-12 RELEASE", "value": "Yes"}
    ]},
    {"smiles": "OCC1O[C@H](O[C@H]2CN3[C@@H]([C@@H](O)[C@H](O)[C@H]3CO)[C@@H]2O)C(O)C(O)[C@@H]1O", "note": "(stereo partly drawn) [casuarine-6-α-D-glucopyranose (9), casuarine-6-α-D-glucopyranose]", "values": [
      {"measurement": "IL-12 RELEASE", "value": "Yes"}
    ]},
    {"smiles": "OCCN1C[C@@H](O)[C@H](O)[C@H]1CO", "note": "[drawing 50]", "values": [
      {"measurement": "IL-12 RELEASE", "value": "Yes"}
    ]},
    {"smiles": "OC[C@H]1N[C@H](c2ccc(O)cc2)[C@@H](O)[C@@H]1O", "note": "[drawing 51]", "values": [
      {"measurement": "IL-12 RELEASE", "value": "Yes"}
    ]}
  ]
}
